Reference: PMC6919601, “Identification of Plasmodium dipeptidyl aminopeptidase allosteric inhibitors by high throughput screening” (PLoS ONE, 2019)
The campaign covered roughly 110,000 compounds. About 230 (0.21%) showed an effect of 50% or more. This is one part of the list.

Molecular target: DPAP1 (Plasmodium falciparum, UniProt Q8IIJ9)
Experiment: primary screen, percent inhibition; read by cleavage of a fluorogenic dipeptide substrate; higher = more effect of the substance
Design: species or system P. falciparum D10 trophozoite lysates; single well
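Further: 30 min substrate incubation versus DMSO and 10 µM JCP410 controls.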

Sequence of DPAP1 (Q8IIJ9 whole entry, looked up): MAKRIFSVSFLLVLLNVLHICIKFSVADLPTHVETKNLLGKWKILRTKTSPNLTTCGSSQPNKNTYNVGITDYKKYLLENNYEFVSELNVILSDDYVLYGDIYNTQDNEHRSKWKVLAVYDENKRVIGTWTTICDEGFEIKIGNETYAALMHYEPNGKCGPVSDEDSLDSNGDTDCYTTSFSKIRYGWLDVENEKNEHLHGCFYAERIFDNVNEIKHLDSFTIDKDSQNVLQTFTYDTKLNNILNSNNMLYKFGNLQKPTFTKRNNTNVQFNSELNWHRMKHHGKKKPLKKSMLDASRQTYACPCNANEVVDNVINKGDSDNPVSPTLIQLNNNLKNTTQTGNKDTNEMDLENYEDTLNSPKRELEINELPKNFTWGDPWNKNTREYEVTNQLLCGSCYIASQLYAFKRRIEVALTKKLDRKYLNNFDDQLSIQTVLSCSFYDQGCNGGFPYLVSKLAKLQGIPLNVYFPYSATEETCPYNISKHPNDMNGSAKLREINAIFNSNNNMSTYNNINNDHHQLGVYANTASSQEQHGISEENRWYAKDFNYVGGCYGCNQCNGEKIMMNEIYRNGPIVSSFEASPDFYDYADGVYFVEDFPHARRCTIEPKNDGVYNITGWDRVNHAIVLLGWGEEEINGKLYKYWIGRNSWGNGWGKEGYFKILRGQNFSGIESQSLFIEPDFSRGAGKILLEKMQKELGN

Going from `COc1cc(OC)cc(C(=O)Nc2cccc3c2C(=O)N(c2ccccc2)C3=O)c1` to `CCOc1cccc(C(=O)Nc2cc(-c3nc4ncccc4o3)ccc2Cl)c1`, the “% Inhibition @ 10 uM” value falls from 16.5% to 1.52%.

Going from `c1ccc(-c2ccc(CNCC3CCCO3)cc2)cc1` (centres unmarked) to `Clc1nc(-c2ccccc2)cc(-c2ccc(Br)cc2)n1`, the “% Inhibition @ 10 uM” value rises from 2.38% to 2.46%.

Going from `COc1ccc(C(=O)N/C(=C\c2ccc3c(c2)OCO3)C(=O)N2CCOCC2)cc1` to `O=C(Nc1ccc2c(c1)OCCO2)c1cccc(C(=O)Nc2ccc3c(c2)OCCO3)c1`, the “% Inhibition @ 10 uM” value falls from -2.87% to -6.38%.

Going from `O=c1cnnc2sc(SCc3ccccc3)nn12` to `CC(C)(C)Cc1nnc(NC(=O)CSCc2ccccc2)s1`, the “% Inhibition @ 10 uM” value falls from 4.18% to -4.84%.

Going from `CCOc1ccc(CCNC(=O)C2=C(C)C(=O)OC23CCC(C)CC3)cc1` (centres unmarked) to `COc1ccc2c(CNCc3ccc(OC(C)C)cc3)c(C(=O)O)n(Cc3ccccc3C)c2c1`, the “% Inhibition @ 10 uM” value rises from -0.138% to 4.14%.

First: COc1ccc2cc3cc(C(=O)NCCN4CCN(Cc5ccccc5)CC4)sc3nc2c1
Second: Cn1c(CN2CCN(Cc3ccccc3)CC2)c(C#N)c2ccccc21
The “% Inhibition @ 10 uM” value of the first is higher: 94.4% for the first, 17.5% for the second.

Going from `CCC(C)NC(=O)CCNS(=O)(=O)c1ccc(Br)cc1` (centres unmarked) to `Cc1cc(Br)ccc1NC(=O)Cn1nc(C(F)F)cc1C`, the “% Inhibition @ 10 uM” value falls from -0.406% to -4.82%.

Compared with `CCCC1=C(C(=O)OCC)C(c2ccc(F)c(F)c2)C(C#N)=C(N)O1` (centres unmarked), `COCC1=C(C(=O)OC)C(c2cccc3ccccc23)C(C#N)=C(N)O1` (centres unmarked) is lower in “% Inhibition @ 10 uM” value: -3.13% for the first, -7.3% for the second.

Going from `OCCN1CCN(c2nc3ccccc3nc2-c2ccccc2)CC1` to `Cc1cc(C)n(-c2nc3ccccc3nc2N2CCN(S(=O)(=O)c3cccc(C#N)c3)CC2)n1`, the “% Inhibition @ 10 uM” value rises from -1.05% to -0.0709%.

Going from `Cc1ccc(C)n1-c1nnc(N2CCCC(C(=O)NC(C)C)C2)s1` (centres unmarked) to `COc1ccc(-c2cc(C(=O)NC(C)C)no2)cc1OC`, the “% Inhibition @ 10 uM” value falls from -4.15% to -5.09%.

Compared with `CC(=O)N[C@@H](Cc1ccccc1)C(=O)N[C@@H](C)c1ccccc1`, `COC(=O)CC(NC(=O)c1ccc(C)cc1)c1ccccc1` (centres unmarked) is lower in “% Inhibition @ 10 uM” value: 14.9% for the first, 3.06% for the second.

Compared with `CC(C)(C(=O)O)c1ccc([N+](=O)[O-])cc1`, `Cc1cc(C)c(S(=O)(=O)c2ccccc2C(=O)O)c(C)c1` is higher in “% Inhibition @ 10 uM” value: 1.62% for the first, 5.68% for the second.

Going from `CN1CCCN(Cc2ccc(Br)cc2)CC1` to `Clc1ccc(CN2CCN(Cc3ccc(Cl)cc3)CC2)cc1`, the “% Inhibition @ 10 uM” value falls from -2.03% to -4.7%.

First: CCO/C(O)=C1\C(C)=Nc2nnnn2C1c1ccccc1OCC (centres unmarked)
Second: Cc1nc2nc(COc3ccccc3)nn2c(O)c1C
The “% Inhibition @ 10 uM” value of the first is lower: -1.62% for the first, 1% for the second.

First: COC(=O)C1=CN(C(C)c2ccccc2)C=C(C(=O)OC)C1c1ccc(Cl)c(Cl)c1 (centres unmarked)
Second: COC(=O)C1=CN(CCc2ccccc2)C=C(C(=O)OC)C1c1ccc(C)s1
The “% Inhibition @ 10 uM” value of the first is higher: -1.46% for the first, -5% for the second.

First: CCc1ccc(C2=CC(c3ccccc3C)n3ncnc3N2)cc1 (centres unmarked)
Second: CC[n+]1c(C)n(CC(O)COc2ccc(F)cc2)c2ccccc21 (centres unmarked)
The “% Inhibition @ 10 uM” value of the first is lower: -1.62% for the first, 1.84% for the second.

Going from `CC1CN(C(=O)CCN2C(=O)c3ccccc3C2=O)CC(C)O1` (centres unmarked) to `CN(Cc1ccco1)S(=O)(=O)c1nnc(NC(=O)CN2C(=O)c3ccccc3C2=O)s1`, the “% Inhibition @ 10 uM” value rises from 2.67% to 5.8%.

First: CC1=N/C(=C2/C=C(c3cccs3)Oc3ccccc32)C(=O)O1
Second: Cc1cc(C)c(C(=O)/C(=C/c2ccco2)c2ccccc2)c(O)n1
The “% Inhibition @ 10 uM” value of the first is lower: 3.54% for the first, 15.4% for the second.

First: Cc1cccc(-c2nnc(NC(=O)c3cccc(C(F)(F)F)c3)s2)c1
Second: COc1ccccc1CNC(C)Cc1cccc(C(F)(F)F)c1 (centres unmarked)
The “% Inhibition @ 10 uM” value of the first is higher: 1.67% for the first, -1.21% for the second.

Going from `N#CC1(Nc2ccccc2)C(=O)Nc2ccccc21` (centres unmarked) to `CC1=NN(c2ccccc2)C(c2ccccc2)C1` (centres unmarked), the “% Inhibition @ 10 uM” value rises from -8.23% to 5.37%.

Compared with `O=C(COc1ccccc1Cl)N1CCc2ccccc21`, `COc1ccccc1OCC(=O)N(Cc1ccccc1F)C1CCS(=O)(=O)C1` (centres unmarked) is higher in “% Inhibition @ 10 uM” value: -3.72% for the first, -3.12% for the second.

Compared with `CC(NC(=O)c1cccnc1)c1ccc(O)cc1` (centres unmarked), `Cc1ccc(Cn2c(SCc3ccc(C(=O)NCc4cccnc4)cc3)nc3ccncc32)cc1` is higher in “% Inhibition @ 10 uM” value: -8.42% for the first, -2.37% for the second.

Compared with `CCCCNC(=O)CC(NCCCC)c1ccccc1O` (centres unmarked), `CCCCN(CCCNC(=O)Cn1nc(-c2ccccc2)ccc1=O)Cc1ccccc1` is lower in “% Inhibition @ 10 uM” value: 7.92% for the first, 3.79% for the second.

First: CCc1cccc(C)c1NC(=O)C1C2CCC(O2)C1C(=O)O (centres unmarked)
Second: CC1CCCC(C)N1C(=O)c1cccc(C(=O)N2C(C)CCCC2C)n1 (centres unmarked)
The “% Inhibition @ 10 uM” value of the first is lower: -3.03% for the first, -0.67% for the second.

First: CC(C)Cn1cc(NC(=O)N(Cc2ccccc2)C(C)C)c2ccccc2c1=O
Second: Cn1c2ccccc2c2c(C(=O)NC3CCN(Cc4ccccc4)CC3)cn(C3CCCC3)c(=O)c21
The “% Inhibition @ 10 uM” value of the first is lower: -6.93% for the first, 0.163% for the second.

Compared with `O=C1CC(c2ccccc2F)NC(NC(=O)c2ccc(OC(F)F)cc2)=N1` (centres unmarked), `COc1ccc(-n2nnnc2S(=O)(=O)Cc2ccc(C(=O)O)cc2)cc1` is higher in “% Inhibition @ 10 uM” value: 3.27% for the first, 4.32% for the second.

Going from `COc1ccc(CCN2C(=O)C3C(C2=O)C2C=CC3C23CC3)cc1OC` (centres unmarked) to `COc1ccc(CN2CCN(C(=O)c3ccc(F)cc3)CC2)cc1Br`, the “% Inhibition @ 10 uM” value rises from -4.43% to 8.09%.

Compared with `O=C(COc1nsnc1N1CCOCC1)c1ccccc1`, `O=S(=O)(c1ccc2c3c(cccc13)CC2)N1CCN(Cc2ccccc2)CC1` is higher in “% Inhibition @ 10 uM” value: -1.15% for the first, 1.76% for the second.

First: O=C(CN1CCCCC1)Nc1ccc(OC(F)(F)F)cc1
Second: CCN1CCCC1CNC(=O)Cn1nc(C)n2c(cc3cc(F)ccc32)c1=O (centres unmarked)
The “% Inhibition @ 10 uM” value of the first is lower: 3.29% for the first, 6.35% for the second.

Going from `CCOc1cccc2cc(-c3nc(-c4cc(OC)c(OC)c(OC)c4)no3)c(=O)oc12` to `CCc1ccc(OCC(=O)Nc2cccc(C#N)c2)c(Br)c1`, the “% Inhibition @ 10 uM” value falls from 9.86% to 0.472%.

First: CCOCCCNc1ncnc2oc(C)c(C(=O)O)c12
Second: Cc1n[nH]c(C)c1CCCCCOc1ccccc1
The “% Inhibition @ 10 uM” value of the first is lower: -7.65% for the first, 0.0792% for the second.

First: Cc1nc2sccn2c(=O)c1N
Second: Nc1c(C(=O)N2CCc3ccccc3C2)sc2nc3c(cc12)CCCCCC3
The “% Inhibition @ 10 uM” value of the first is lower: -5.05% for the first, 6.08% for the second.

With `CCCN1C(=O)NC2C1NC(=O)N2CCC` (centres unmarked) the “% Inhibition @ 10 uM” value was 20.5%.
